This is an account of results in PubChem BioAssay AID463173 (ICCB-Longwood Screening Facility, Harvard Medical School, 2010).

Molecules are shown by their SMILES. The campaign covered roughly 52,000 compounds. About 4,300 (8.3%) were called active. Cut-off read from the data, not from the text of the source: active = survival mostly below about 52% (no sharp cut-off); inactive = mostly above about 56%. Some of the results follow.

The subject of this assay is DeltatarO mutant. In words: S. aureus survival, RN4220 and DeltatarO strains – OD600, teichoic acid synthesis inhibitors, primary screen (AID 463173). The following applies: S. aureus RN4220 wild type/DeltatarO growth, OD600, 18 h, stronger effect = lower value, screened at 18.75 µg/mL (by protocol).
For `OC1CCN(C(c2cccc(C(F)(F)F)c2)c2nnnn2Cc2ccc(F)cc2)CC1` (centres undefined), the survival was inactive: 76%.

With `COc1ccc(NC(=O)CSc2nc3ccccc3nc2Cc2ccc(C)cc2)cc1Cl`, the survival was inactive: 68%.

For `COc1ccc(C)cc1NS(=O)(=O)c1ccc2c3c(cccc13)C(=O)N2`, the survival was inactive: 58%.

With `N#Cc1ccccc1NC(=O)CNCC1CCCO1` (centres undefined), the survival was inactive: 76%.

As to `COc1ccc(CNC(=O)CCC2N=C3c4ccccc4N=C(SCc4ccccc4F)N3C2=O)cc1` (centres undefined), the survival was active: 37%.

As for `Cc1ccc(-c2nc(SCC(=O)NCC3CCCO3)c3c(=O)n(C)c(=O)n(C)c3n2)cc1` (centres undefined), the survival is inactive: 99%.

With `CCn1ccc(C(=O)Nc2sc(C(=O)OC)c(C)c2C(=O)OC)n1`, the survival was inactive: 89%.

For the compound `CCOC(=O)CSC1=Nc2ccccc2C2=NC(CCC(=O)NCc3ccc(OC)cc3)C(=O)N12` (centres undefined), the survival is inactive: 74%.

Take `Cc1ccccc1N1CCN(S(=O)(=O)c2ccccc2)CC1`: the survival is active: 28%.

With `Oc1c(C(c2ccccc2F)N2CCN(c3ccccc3F)CC2)sc2nc(-c3ccco3)nn12` (centres undefined), the survival was inactive: 87%.

Regarding `CCc1ccc(OCC(=O)Nc2cc(-c3ccc(C)cc3)no2)cc1`, the survival was inactive: 85%.

With `CCOc1ccccc1C(=O)Nc1nncs1`, the survival was inactive: 81%.

`COc1ccc(CNC(=O)CSc2ncc3c(n2)-c2cc(Cl)ccc2N(Cc2ccccc2)S3(=O)=O)cc1`: the survival is inactive: 102%.

`Cc1ccc(Cl)cc1N1CCN(C(=O)Cn2c(-c3cccs3)cc3cc(F)ccc32)CC1`: the survival is inactive: 98%.

With `CCOC(=O)Cn1c(=O)cc(C(F)(F)C(F)(F)F)c2c(C)nn(CC)c21`, the survival was inactive: 73%.

As for `COc1cccc(-n2c(-c3ccccc3F)nc3c(cnn3-c3ccc(C)cc3)c2=O)c1`, the survival was inactive: 75%.

As for `CCOC(=O)C(Cc1ccccc1)NC(=O)CCc1c(C)nc2nc(C)nn2c1C` (centres undefined), the survival was inactive: 84%.

As to `COc1ccc(NC(=O)c2sc3nc4c(cc3c2N)CCCCCC4)cc1`, the survival was inactive: 127%.

Turning to `COCCNC(=O)CSc1nc2cc3c(cc2c(=O)n1CCCC(=O)NCc1ccc2c(c1)OCO2)OCO3`, the survival was inactive: 84%.

`Cc1ccccc1OCc1nc2c3cnn(-c4ccccc4F)c3ncn2n1`: the survival was inactive: 75%.

As to `Cc1ccccc1NC(=O)CSc1nc(-c2ccccc2)cn1-c1ccccc1F`, the survival is inactive: 79%.

As for `O=C(NC1CCCC1)c1ccc2c(=O)n(Cc3ccccc3)c(SCc3cccc([N+](=O)[O-])c3)nc2c1`, the survival is inactive: 106%.

In the case of `CCOc1ccccc1NC(=O)C(=O)NCCc1sc2nc(-c3ccc(OC)cc3)nn2c1C`, the survival was inactive: 83%.

With `Cc1ccc(NC(=O)NCCOCCn2c(=O)oc3ccccc32)cc1C`, the survival is inactive: 86%.

Consider `CCOc1ccc(CNC(=O)c2ccccc2NC(=O)c2nsc3ccccc23)cc1`, for which the survival is active: -5%.

As to `COC(=O)c1sccc1S(=O)(=O)N1CCN(c2ccc(C)cc2C)CC1`, the survival is inactive: 83%.

Take `CCOc1ccc(CNC(=O)C2CCN(C(=O)N3CC(CC)Oc4ccccc43)CC2)cc1` (centres undefined): the survival was inactive: 106%.

With `Cc1c(Cl)cccc1NC(=O)N1CCOc2ccccc21`, the survival is inactive: 90%.

For the compound `Cc1ccc(OCC(=O)Nc2ccc3nc(SCC(=O)Nc4ccc(C)cc4C)sc3c2)cc1`, the survival is inactive: 73%.

`S=c1[nH]nc(Cc2ccccc2)n1Cc1ccccc1`: the survival was inactive: 83%.

Regarding `CC(C)(C)c1ccc(C(=O)NC2(C(F)(F)F)NC(=O)N(CCc3ccccc3)C2=O)cc1` (centres undefined), the survival is inactive: 50%.

Consider `COc1cccc(NC(=O)CSc2ncc3c(n2)-c2ccc(Cl)cc2N(C)S3(=O)=O)c1`, for which the survival was active: 37%.

For `CCCNC(=O)c1ccccc1NC(=O)c1nsc2ccccc12`, the survival is inactive: 77%.

In the case of `CCCN(CCC)CCCNC(=O)C1CCN(c2nc3ccc(CC)cc3s2)CC1`, the survival was inactive: 54%.

As for `N#C/C(=C\c1cccc(F)c1)c1nc(-c2cc3c(ccc4ccccc43)oc2=O)cs1`, the survival is inactive: 83%.

For the compound `CCOc1cc(C2c3c(oc4cc(C)cc(C)c4c3=O)C(=O)N2CCO)ccc1O` (centres undefined), the survival is inactive: 68%.

With `CCOc1ccccc1NS(=O)(=O)c1ccc2[nH]c3c(c2c1)CCCCC3`, the survival was inactive: 84%.

As to `COc1ccc(S(=O)(=O)N(CC(=O)Nc2cc(C)ccc2OC)Cc2ccccc2)cc1`, the survival is inactive: 53%.

Regarding `COC(=O)c1ccc(NC(=O)CN2CCN(S(=O)(=O)c3ccc(Br)cc3)CC2)cc1`, the survival was inactive: 89%.

`O=c1c(Cl)c(NC2CC2)cnn1-c1ccccc1`: the survival is inactive: 68%.

Regarding `Cc1ccc(Cn2c(=O)n(-c3ccc(C)cc3)c(=O)c3c2c2cc(C)ccc2n3C)cc1`, the survival was active: 52%.

In the case of `Cc1c(-c2ccc(Cl)cc2)c(=O)oc2c(CN3CCN(CCO)CC3)c(O)ccc12`, the survival was inactive: 81%.

For the compound `CCOc1ccc(CCNC(=O)c2cc3c(=O)n(C)c4ccccc4c3n2C)cc1OCC`, the survival is inactive: 87%.

As for `Cc1ccc(NC(=O)C(=O)NCC(c2ccc3c(c2)OCO3)N2CCN(C)CC2)c(C)c1` (centres undefined), the survival is inactive: 91%.

In the case of `Cc1ccc(NC(=O)C(Cc2ccccc2)NS(=O)(=O)c2ccc3c(c2)CCC(=O)N3)cc1` (centres undefined), the survival was inactive: 109%.

As for `CS(=O)(=O)c1cccc(-c2nnc(NC(=O)c3ccc4c(c3)OCCO4)o2)c1`, the survival is inactive: 76%.

As for `CC(C)(C)c1ccc(Oc2nc3ccccn3c(=O)c2/C=C(\C#N)c2nc3ccccc3s2)cc1`, the survival is inactive: 58%.

On to `CCc1ccc(NC(=O)CC2C(=O)N(c3ccc(C)cc3)C(=O)N2C2CCCC2)cc1` (centres undefined), for which the survival is inactive: 64%.

On to `Oc1ccc(-c2nnc(SCC3CCCCC3)o2)cc1`, for which the survival is inactive: 89%.

Turning to `CN(C)c1oc(-c2ccc(COc3ccccc3)o2)nc1C#N`, the survival was active: 39%.

In the case of `COc1ccc(N2CCN(S(=O)(=O)CCNC(=O)c3cc(=O)c4ccccc4o3)CC2)cc1`, the survival was inactive: 99%.

As to `Cc1cc(C)cc(NC(=O)CSc2nc(=O)[nH]c3c2CCC3)c1`, the survival was inactive: 112%.

For the compound `COc1cc(NC(=O)Cn2ccn(-c3cc(C)cc(C)c3)c(=O)c2=O)cc(OC)c1`, the survival was inactive: 71%.

For the compound `CC(C)CN(CCNC(=O)c1cn(C)c2ccc(S(=O)(=O)N3CCCCCC3)cc2c1=O)CC(C)C`, the survival was inactive: 89%.

Regarding `COc1ccc(N2CCN(C(=O)c3cccs3)CC2)cc1`, the survival was inactive: 88%.

In the case of `O=C(CN1CCCN(Cc2ccc(F)cc2)S1(=O)=O)Nc1ccc2c(c1)OCCO2`, the survival is inactive: 112%.

Consider `CC(=O)c1nn(-c2ccc(OC(F)(F)F)cc2)nc1Nc1ccccc1`, for which the survival was inactive: 88%.

With `CCc1nn(CCCC(=O)NCc2ccc(C)cc2)c(=O)c2cc3occc3n12`, the survival is inactive: 76%.

For `CCCN(CCC)CCCNC(=O)Cn1ncc2c3ccccc3n(Cc3ccccc3F)c2c1=O`, the survival is inactive: 129%.

Take `CCOc1ccccc1N(C)C(=O)Cn1nc(Cc2ccncc2)c2ccccc2c1=O`: the survival is inactive: 92%.

`CCOC(=O)N1CCC(NC(=O)c2cnn(-c3ccc(C)cc3C)c2C2CCN(C(=O)OC(C)(C)C)CC2)CC1`: the survival is inactive: 124%.

Regarding `CC(=O)Nc1cccc(Nc2nc3ccccc3n3c(C)nnc23)c1`, the survival was inactive: 60%.

In the case of `CNS(=O)(=O)c1ccc2c(c1)n(C)c(=O)n2C`, the survival is inactive: 93%.

With `Cc1cccc(C(c2sc3nc(-c4ccco4)nn3c2O)N2CCN(c3ccccc3F)CC2)c1` (centres undefined), the survival was inactive: 67%.

On to `CCOC(=O)C1CCCN(S(=O)(=O)c2cc(Br)cc3c2N(C(C)=O)CC3)C1` (centres undefined), for which the survival is inactive: 72%.

`COC(=O)c1ccc(NS(=O)(=O)c2ccc3[nH]c4c(c3c2)CCCC4)cc1`: the survival was active: 6%.

For the compound `O=C1C2C3C=CC(C3)C2C(=O)N1Cc1ccccc1` (centres undefined), the survival is inactive: 99%.

Regarding `CCC(=O)N1CCc2cc(S(=O)(=O)NCCC(=O)NCc3ccc(C)cc3)ccc21`, the survival is inactive: 92%.

On to `COc1ccccc1C(=O)OCc1cc(=O)n2nc(-c3cccs3)sc2n1`, for which the survival was inactive: 76%.

With `CCCSc1ncc(Cl)c(C(=O)N(Cc2cccc(Cl)c2)C2CCS(=O)(=O)C2)n1` (centres undefined), the survival was inactive: 60%.

`CCOc1ccc(-c2cc(NC(=O)Nc3ccc(Cl)cc3)c(C(=O)OC)s2)cc1`: the survival was inactive: 101%.

For the compound `CCOc1ccccc1NC(=S)N1CCC(NC(=O)c2ccco2)CC1`, the survival is inactive: 98%.

Consider `COc1ccc(OC)c(NC(=O)c2cnc(N3CCCCC3)c3ccccc23)c1`, for which the survival was inactive: 81%.

`O=C(NCc1ccco1)C(c1ccccc1)N(C(=O)Cn1nnc2ccccc21)C1CCCC1` (centres undefined): the survival was inactive: 105%.

With `CCOC(=O)c1c(NC(=O)CCCOc2ccc(C(C)(C)C)cc2)sc2c1CCCC2`, the survival was active: 14%.

With `Cc1ccc(-c2noc(-c3ccccc3NC(=O)C3CC(=O)N(c4ccc(C)cc4)C3)n2)cc1` (centres undefined), the survival is inactive: 48%.

In the case of `COc1cc(-c2nc(=S)[nH][nH]2)cc(OC)c1OC`, the survival is inactive: 99%.

Regarding `COc1cc2nc(Nc3cccc(C)c3)nc(N)c2cc1OC`, the survival was inactive: 67%.

Consider `O=C(Oc1ccc(F)cc1)c1nc(SCc2ccc(F)cc2)ncc1Cl`, for which the survival was inactive: 79%.

Consider `CC1=C(C(=O)NCc2ccccc2C)C2(CCCCCC2)OC1=O`, for which the survival was inactive: 78%.

In the case of `COC(=O)c1sc(-c2ccccc2)cc1NC(=O)Nc1ccc(Cl)cc1`, the survival was active: 11%.

Consider `CCCCN(Cc1cc2ccccc2[nH]c1=O)C(=O)c1cccc(Cl)c1`, for which the survival was inactive: 81%.

As for `O=C1COc2ccc(-c3cc(-c4ccccc4)c4c(n3)-c3ccccc3OC4)cc2N1`, the survival is inactive: 79%.

On to `Cc1nn(-c2ccccc2)c2sc(C(=O)Nc3ccc(Br)cc3)cc12`, for which the survival was active: 26%.

`CCc1ccc(NC(=O)[C@H](CSCc2ccccc2)N2Cc3ccccc3C2=O)cc1`: the survival is inactive: 76%.

As for `COc1ccc(-c2cc3c(=O)n(CC(=O)Nc4cc(F)ccc4F)ccn3n2)cc1OC`, the survival is inactive: 84%.

With `O=C(NCCc1ccc(Cl)cc1)c1ccc2c(c1)N(Cc1ccc(F)cc1)C(=O)CS2`, the survival is active: 37%.

Regarding `CN(C)c1ccc(-c2nc(-c3cccs3)c(-c3cccs3)[nH]2)cc1`, the survival is active: 47%.

Take `COc1cccc(CNC(=O)CCCn2ncn3c(cc4occc43)c2=O)c1`: the survival is inactive: 84%.
